Reference: PubChem BioAssay AID1347073 (National Center for Advancing Translational Sciences (NCATS), 2019)
In all, about 45,000 compounds went through this assay and about 200 (0.44%) were called active. Another 7% or so got no clear call; they are omitted. The call rests on the fitted dose curve; in most records, active means well fitted activation curve with a large enough effect; inconclusive means small, poorly fitted or top-dose-only effect; inactive means no such curve, though single readings can be large or run the other way. The list shows a part of the results.

experiment: qHTS of TDP-43 Inhibitors: NCGC Sytravon Library Screen; details: yeast TDP-43 toxicity rescue, BacTiter-Glo growth, 24 h; at 46.1 µM (top of the series); further: 0% is about no effect; nearly all actives have a fitted effect of over 55% in size
Outline: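 TDP-43-expressing yeast, pregrown in raffinose, seeded at OD600 0.02 in galactose medium with compound for 24 hr at 30 deg C. Growth read by BacTiter-Glo luminescence, so rescue of toxicity appears as activation.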

For `Clc1ccc(CNC2CN3CCC2CC3)cc1` (centres undefined), which growth rescue (activation) is on record?
The growth rescue (activation) was inactive: -7.57%.

With `CCNC(=S)N(C)CCc1cc2c(c(OC)c1C=C1C(=O)N(C)C(=O)N(C)C1=O)OCO2` as the molecule, how does the growth rescue (activation) read?
The growth rescue (activation) was inactive: -6.6%.

With `CC(Cc1ccccc1)NC(=O)CCCCC(=O)NC(C)Cc1ccccc1` (centres undefined) as the molecule, how does the growth rescue (activation) read?
The growth rescue (activation) was inactive: -19.4%.

Which growth rescue (activation) does the source give for `O=C(c1cccc(C(F)(F)F)c1)C1CCCN(Cc2ncc[nH]2)C1` (centres undefined) here?
Its growth rescue (activation) is inactive: -1.04%.

With `Clc1cccc(CNCCc2ccc3c(c2)OCO3)c1` as the molecule, how does the growth rescue (activation) read?
Its growth rescue (activation) is inactive: 7.78%.

With `C[C@]12CC[C@H](O)CC1=CCC1C2CC[C@@]2(C)C1CC[C@@H]2OCc1ccccc1` (some centres undefined) as the molecule, how does the growth rescue (activation) read?
Its growth rescue (activation) is inactive: 5.15%.

With `O=C(CNC(=O)OCc1ccccc1)NCC(=O)Nc1ccc(Br)cc1C(=O)c1ccccc1` as the molecule, how does the growth rescue (activation) read?
Its growth rescue (activation) is inactive: 1.01%.

With `COP(=O)(OC)/C(C=O)=N/Nc1ccc([N+](=O)[O-])cc1` as the molecule, how does the growth rescue (activation) read?
The growth rescue (activation) was inactive: 24.6%.

For `O=C(O)c1cccc2c1NC(c1cccc([N+](=O)[O-])c1)C1CC(Sc3ccccc3[N+](=O)[O-])C(Cl)C21` (centres undefined), which growth rescue (activation) is on record?
The growth rescue (activation) was inactive: 3.82%.

For `CCc1ccc2c(CN3CC=C(c4ccccc4)CC3)cc(=O)oc2c1`, which growth rescue (activation) is on record?
The growth rescue (activation) was inactive: 6.02%.

Which growth rescue (activation) does the source give for `Cc1cc(C=C2C(=O)NC(=O)NC2=O)c(C)n1-c1cccnc1` here?
Its growth rescue (activation) is inactive: -1.43%.

With `CNC(=O)Oc1ccc2ncccc2c1` as the molecule, how does the growth rescue (activation) read?
Its growth rescue (activation) is inactive: 33.8%.

For `NC(=O)Cn1cc(C(=O)c2ccccc2)c2ccccc21`, which growth rescue (activation) is on record?
The growth rescue (activation) was inactive: 1.32%.

For `C[N+]12CCC(CC1)C(C(O)(c1cccc(Cl)c1)c1cccc(Cl)c1)C2` (centres undefined), which growth rescue (activation) is on record?
Its growth rescue (activation) is inactive: 1.93%.

Which growth rescue (activation) does the source give for `C[C@]12CCC3C(CC[C@H]4C[C@@H](O)CC[C@]34C)C1CC[C@@H]2O` (some centres undefined) here?
Its growth rescue (activation) is inactive: 7.27%.

For `CC1COC2N=C(N[N+](=O)[O-])NC2O1` (centres undefined), which growth rescue (activation) is on record?
The growth rescue (activation) was inactive: 6.92%.

For `CC(Cc1ccccc1)NC(=O)NC(C)Cc1ccccc1` (centres undefined), which growth rescue (activation) is on record?
Its growth rescue (activation) is inactive: 3.09%.

Which growth rescue (activation) does the source give for `O=C(Cc1ccccc1)N1CCN(Cc2ccc(Cl)cc2)CC1` here?
The growth rescue (activation) was inactive: -8.04%.

Which growth rescue (activation) does the source give for `COc1ccc(P2(=O)Nc3ccccc3N2)cc1` here?
Its growth rescue (activation) is inactive: 8.1%.

Which growth rescue (activation) does the source give for `O=C1NC(=S)N(C2CC2)C(=O)/C1=C/c1ccc2c(c1)CCN2CCCCl` here?
The growth rescue (activation) was inactive: 37.2%.

With `Cc1nc2ccc(Cl)cc2c(=O)n1-c1ccc([N+](=O)[O-])cc1` as the molecule, how does the growth rescue (activation) read?
The growth rescue (activation) was inactive: 7.07%.

Which growth rescue (activation) does the source give for `CC1(C(O)(C#CCN2CCCCC2)c2ccccc2)CCCC1` (centres undefined) here?
Its growth rescue (activation) is inactive: 11.1%.

For `O=c1c2ccccc2[nH]c(=S)n1-c1ccc(Br)cc1`, which growth rescue (activation) is on record?
The growth rescue (activation) was inactive: 2.61%.

With `Cc1nn(Cc2ccc(Cl)cc2Cl)c(Cl)c1C(=O)NC1CCCc2ccccc21` (centres undefined) as the molecule, how does the growth rescue (activation) read?
The growth rescue (activation) was inactive: 1.74%.

For `COc1ccc(C(C)=O)cc1CN1CC=C(c2ccccc2)CC1`, which growth rescue (activation) is on record?
Its growth rescue (activation) is inactive: 12.9%.

With `CN(C)C1(CNC(=O)Nc2ccc(Cl)c(Cl)c2)CCCCC1` as the molecule, how does the growth rescue (activation) read?
The growth rescue (activation) was inactive: 1.59%.

With `CC(=O)Nc1nc(CCl)cs1` as the molecule, how does the growth rescue (activation) read?
Its growth rescue (activation) is inactive: -4.7%.

Which growth rescue (activation) does the source give for `CC(C)(C)OC(=O)c1c(N)n(Cc2ccco2)c2nc3ccccc3nc12` here?
The growth rescue (activation) was inactive: 31.5%.

Which growth rescue (activation) does the source give for `COc1cc(CC2(CCc3ccncc3)C(=O)NC(=O)NC2=O)cc(OC)c1OC` here?
The growth rescue (activation) was inactive: -11.5%.

For `Cc1cccc(OP(=O)(Oc2ccccc2)OC(c2ccccc2)C(F)(F)F)c1` (centres undefined), which growth rescue (activation) is on record?
Its growth rescue (activation) is inactive: 10.3%.

For `Cc1cc(C)c(-n2c(O)c(/C=N/N3CCCCC3c3cccnc3)c(=O)[nH]c2=O)c(C)c1` (centres undefined), which growth rescue (activation) is on record?
Its growth rescue (activation) is inactive: 2.91%.

With `Nc1cc(N2CCNCC2)c([N+](=O)[O-])cc1Cl` as the molecule, how does the growth rescue (activation) read?
The growth rescue (activation) was inactive: 7.38%.

With `CCCC(=O)NC(Oc1ccc(C(C)=O)cc1)C(Cl)(Cl)Cl` (centres undefined) as the molecule, how does the growth rescue (activation) read?
The growth rescue (activation) was inactive: 3.78%.

Which growth rescue (activation) does the source give for `C=CCn1c(O)c(C(C)=Nc2cccc(C(=O)O)c2)c(=O)[nH]c1=O` here?
The growth rescue (activation) was inactive: -13.2%.

With `Cc1ccc2c(c1)C1CN(C)CCC1N2C(=O)c1cccs1` (centres undefined) as the molecule, how does the growth rescue (activation) read?
Its growth rescue (activation) is inactive: 9.57%.

Which growth rescue (activation) does the source give for `COc1ccccc1OC(=O)c1ccc(C)c(S(=O)(=O)N2CCOCC2)c1` here?
The growth rescue (activation) was inactive: -4.42%.

For `COC(=O)Nc1ccc(N=C(N)N[N+](=O)[O-])cc1`, which growth rescue (activation) is on record?
Its growth rescue (activation) is inactive: 0.472%.

For `Clc1ccc(CNCCc2ccc3c(c2)OCO3)cc1`, which growth rescue (activation) is on record?
The growth rescue (activation) was inactive: -9.24%.

With `Cn1cccc1/C=C1\C(=O)NC(=O)N(CCC2=CCCCC2)C1=O` as the molecule, how does the growth rescue (activation) read?
The growth rescue (activation) was inactive: 2.71%.

With `CCOC(=O)C1(CCCc2ccccc2)CCN(C2CCCC2)CC1` as the molecule, how does the growth rescue (activation) read?
Its growth rescue (activation) is inactive: -3.96%.

Which growth rescue (activation) does the source give for `COc1ccccc1NC(=O)COC(=O)c1cc(C)n(C2CC2)c1C` here?
The growth rescue (activation) was inactive: -15.4%.

For `CCOP(=S)(OCC)Oc1cc(C)oc(=O)c1Cl`, which growth rescue (activation) is on record?
Its growth rescue (activation) is inactive: 0.979%.

Which growth rescue (activation) does the source give for `Cc1cc(C)cc(N2C(=O)NC(=O)/C(=C\c3cccn3-c3ccccc3)C2=O)c1` here?
Its growth rescue (activation) is inactive: -26.2%.

For `Nc1nnc(CCN2CCCCC2)s1`, which growth rescue (activation) is on record?
Its growth rescue (activation) is inactive: 23.1%.

With `COCCO[C@H]1CCC2C3CC=C4C[C@@H](O)CC[C@]4(C)C3CC[C@@]21C` (some centres undefined) as the molecule, how does the growth rescue (activation) read?
Its growth rescue (activation) is inactive: -1.92%.

For `CC(C)CCCn1c(O)c(/C=C2/C=CC=N2)c(=O)[nH]c1=O`, which growth rescue (activation) is on record?
The growth rescue (activation) was inactive: -5.42%.

For `COP(=S)(OC)c1c(C)nn(CCC#N)c1NC(=O)c1ccc(Cl)cc1`, which growth rescue (activation) is on record?
The growth rescue (activation) was inactive: 13.1%.

Which growth rescue (activation) does the source give for `CC/C(=N\Nc1ccccc1)c1c(O)n(C)c(=O)n(C)c1=O` here?
Its growth rescue (activation) is inactive: -36.7%.

For `Nc1ccccc1-[n+]1c(-c2ccccc2)cc(-c2ccccc2)cc1-c1ccccc1`, which growth rescue (activation) is on record?
The growth rescue (activation) was inactive: 14.4%.

For `COC(=O)C(=O)N1CC2(C)CNCC(C)(C1)C2=O`, which growth rescue (activation) is on record?
The growth rescue (activation) was inactive: -1.42%.

For `Cc1ccccc1N1C(=O)NC(=O)/C(=C\c2cnn(-c3ccccc3)c2)C1=O`, which growth rescue (activation) is on record?
Its growth rescue (activation) is inactive: 13.9%.

Which growth rescue (activation) does the source give for `O=C(COc1ccc(Cl)cc1)N1CCN(C/C=C/c2ccccc2)CC1` here?
The growth rescue (activation) was inactive: 16.1%.

Which growth rescue (activation) does the source give for `CN(C)C(CNC(=O)Cc1c(Cl)cccc1Cl)c1ccccc1` (centres undefined) here?
The growth rescue (activation) was inactive: -7.1%.

For `O=C(N/N=C/c1c(O)n(Cc2ccc(F)cc2)c(=S)[nH]c1=O)c1ccncc1`, which growth rescue (activation) is on record?
The growth rescue (activation) was inactive: 9.56%.

Which growth rescue (activation) does the source give for `CCn1c(O)c(C=Nc2ccc(S(N)(=O)=O)cc2)c(=O)[nH]c1=S` here?
The growth rescue (activation) was inactive: 18.4%.

With `CC(C(N)=O)N1CC(c2ccc(Cl)cc2)CC1=O` (centres undefined) as the molecule, how does the growth rescue (activation) read?
The growth rescue (activation) was inactive: -9.49%.

For `CC(=O)O[C@H]1CC[C@@]2(C)C(=CC(=O)C3C2CC[C@@]2(C)C3C[C@H](OC(C)=O)[C@@H]2OC(C)=O)C1` (some centres undefined), which growth rescue (activation) is on record?
The growth rescue (activation) was inactive: 9.86%.

Which growth rescue (activation) does the source give for `C[C@]12CCC3C(CC[C@H]4C[C@@H](O)CC[C@]34C)[C@H]1CC[C@H]2O` (some centres undefined) here?
Its growth rescue (activation) is inactive: 23.6%.

Which growth rescue (activation) does the source give for `Cc1ccsc1C(=O)C1CCCN(Cc2sc(N(C)C)nc2Cl)C1` (centres undefined) here?
Its growth rescue (activation) is inactive: -2.94%.
